# Laboratory results reported in article PMC4336329 (PLoS ONE, 2015).
# The campaign covered roughly 310,000 compounds. About 2,200 (0.71%) showed an effect of 50% or more. Effects have a minus sign here. The list shows a part of the results.
# Target: human ether-à-go-go-related gene (hERG) potassium channel (human, UniProt Q12809)
# Assay: primary screen, population patch clamp on CHO cells stably expressing hERG
# Chain of human ether-à-go-go-related gene (hERG) potassium channel (Q12809 whole entry, looked up): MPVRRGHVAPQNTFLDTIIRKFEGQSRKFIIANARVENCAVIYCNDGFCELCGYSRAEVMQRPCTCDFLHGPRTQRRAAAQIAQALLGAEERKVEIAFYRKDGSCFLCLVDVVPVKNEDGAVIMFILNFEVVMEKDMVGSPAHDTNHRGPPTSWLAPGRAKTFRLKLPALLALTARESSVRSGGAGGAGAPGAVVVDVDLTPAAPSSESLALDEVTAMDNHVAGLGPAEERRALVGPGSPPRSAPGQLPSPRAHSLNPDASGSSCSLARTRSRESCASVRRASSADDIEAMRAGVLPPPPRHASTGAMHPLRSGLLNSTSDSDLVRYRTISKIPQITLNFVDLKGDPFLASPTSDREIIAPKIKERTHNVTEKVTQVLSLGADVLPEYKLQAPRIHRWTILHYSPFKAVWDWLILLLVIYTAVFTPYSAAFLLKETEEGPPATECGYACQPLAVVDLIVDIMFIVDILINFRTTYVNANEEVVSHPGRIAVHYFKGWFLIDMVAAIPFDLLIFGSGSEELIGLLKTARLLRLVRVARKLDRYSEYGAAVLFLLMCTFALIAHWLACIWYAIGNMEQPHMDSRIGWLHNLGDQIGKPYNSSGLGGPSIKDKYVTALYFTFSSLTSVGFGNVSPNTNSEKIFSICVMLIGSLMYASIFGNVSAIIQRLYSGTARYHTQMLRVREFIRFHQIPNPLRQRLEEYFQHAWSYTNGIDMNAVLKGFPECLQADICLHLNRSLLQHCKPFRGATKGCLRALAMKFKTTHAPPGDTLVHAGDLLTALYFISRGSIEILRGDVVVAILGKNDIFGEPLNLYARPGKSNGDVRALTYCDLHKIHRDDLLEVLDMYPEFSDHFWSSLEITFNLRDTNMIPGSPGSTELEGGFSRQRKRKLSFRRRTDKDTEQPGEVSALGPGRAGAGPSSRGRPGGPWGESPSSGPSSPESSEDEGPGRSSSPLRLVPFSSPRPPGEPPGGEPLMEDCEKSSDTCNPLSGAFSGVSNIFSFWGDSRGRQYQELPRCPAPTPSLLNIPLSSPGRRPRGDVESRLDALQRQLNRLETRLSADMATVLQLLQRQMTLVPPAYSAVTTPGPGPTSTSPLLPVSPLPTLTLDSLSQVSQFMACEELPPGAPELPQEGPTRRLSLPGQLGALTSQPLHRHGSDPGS
row,SMILES,"hERG current change (%, negative = inhibition) at 1uM [%]"
1,Cc1ccc(N2CCN(C(=O)c3ccccc3NC(=O)/C=C\C(=O)O)CC2)cc1,-1.41
2,C=CCn1c(C)cc(C(=O)CN2C(=O)NC3(CCCc4ccccc43)C2=O)c1C (centres unmarked),5.43
3,Fc1cccc(NC(=S)NNc2ccccc2)c1,10.7
4,COc1ccc(C(=O)C2CCCN(Cc3ccon3)C2)cc1OC (centres unmarked),13.7
5,c1ccc(OCc2nnc(-c3ccccc3)o2)cc1,7.89
6,C/C(=N\NC(=O)c1ccc2c(c1)OCCO2)c1ccccc1,13.6
7,CCCCN(CC)CCCNC(=O)c1csc2c1CCCCC2,39.8
8,O=C(Nc1ccc(Cl)cc1)C1CCCN(S(=O)(=O)c2cnc[nH]2)C1 (centres unmarked),15.2
9,COc1cccc(-c2ccc(SCC(=O)NCCc3ccccc3)nn2)c1,-4.82
10,Cc1cc2oc(=O)cc(CN(C)Cc3cccc(F)c3)c2cc1C,11.2
11,COc1ccc(CS(=O)(=O)c2ncn[nH]2)cc1,-30.6
12,CCOc1cc(-c2cc(-c3ccc(C)o3)nc(N)c2C#N)ccc1O,5.13
13,Cc1ccc(S(=O)(=O)N2CCC(C(=O)N3CCC(C(=O)NCC4CCCO4)CC3)CC2)cc1 (centres unmarked),-5.05
14,N#CCCN(C(=O)CSc1nnc(-c2ccncc2)n1C1CC1)c1ccccc1,8.26
15,Cc1ccc(S(=O)(=O)CCC(=O)NCc2ccccc2F)cc1,9.78
16,CCC1C=CC=CC[C@H](C)[C@@H](O)[C@](C)(O)C(=O)[C@@H](C)[C@H](O)[C@@H](C)C(=O)[C@H](C)[C@@H](O)[C@H](C)C=CC(=O)OC2[C@@H](C)C(CC1)OC1(CC[C@@H](C)C(C[C@H](C)O)O1)[C@@H]2C (some centres unmarked),16.6
17,O=C(Nc1ccc(Cl)cc1)c1cc2nc(C3CC3)cc(C(F)(F)F)n2n1,1.77
18,Cc1cc(OCC(=O)Nc2ccc(S(=O)(=O)N3CCN(C)CC3)cc2)ccc1Br,-2.44
19,COc1ccccc1N1C(=O)c2cccc3c(N(C)CCO)ccc(c23)C1=O,10
20,COc1ccc(/C=N/NC(=O)CNC(=O)COc2ccccc2)cc1,17.7
21,CC(C)NC(=O)Cn1cc(C(=O)COc2ccccc2)c2ccccc21,5.63
22,Cc1cc2c(c(=O)n1CCN(C)C)C(c1ccc(Br)cc1)C(C#N)=C(N)O2 (centres unmarked),-19.8

row,SMILES,"hERG current change (%, negative = inhibition) at 1uM [%]"
1,O=C(Nc1nnc(-c2ccncc2)o1)c1ccccc1,7.47
2,CCCCCCn1c(O)c(C=NCCCn2ccnc2)c(=O)[nH]c1=O,-0.0725
3,CCCCNc1cc(=O)n(C)c(=O)n1C,3.86
4,CCCCn1nc2cc(C(=O)NCc3ccccc3)ccc2c1OCC,10.2
5,CCOc1ccc(Nc2nc(Nc3ccc(O)cc3)nc(C)c2[N+](=O)[O-])cc1,10.5
6,Cc1ccc(NS(=O)(=O)c2ccc(N/N=C/c3ccccc3OCC(=O)O)c([N+](=O)[O-])c2)c(C)c1,9.1
7,CC(C)(C)OC(=O)N1CCC(C(=O)N[C@@H](Cc2ccccc2)C(=O)O)CC1,14.5
8,CCNC(=S)N(Cc1cc2cccc(C)c2[nH]c1=O)C1CCCC1,9.86
9,CCN(CC)CCn1c(SCC(=O)Nc2ccc3c(c2)CCC3)nc2ccccc2c1=O,-13.1
10,CC(Oc1ccccc1Cl)C(=O)Nc1ccc(S(=O)(=O)Nc2nccs2)cc1 (centres unmarked),3.88
11,CC(C)=CC1C=C(C)C(C)C2C(=O)NNC(=O)C12 (centres unmarked),16.2
12,COC(=O)[C@H]1Cc2c([nH]c3ccccc23)[C@H](c2ccccc2)N1,7.5
13,COc1ccc(C(=O)NC(=S)NNC(=O)c2ccc(NC(=O)C(C)C)cc2)cc1,18.1
14,CC1Cc2ccccc2N1Cc1cc(=O)c(OCC(=O)Nc2ccccc2)co1 (centres unmarked),-5.32
15,O=C(CN1C(=O)COc2ccc(S(=O)(=O)N3CCCCC3)cc21)NCc1ccccc1Cl,17.6
16,CCOC(Cn1c(SCc2cc(C(C)=O)ccc2OC)nc2ccccc2c1=O)OCC,2.42
17,CN(C)S(=O)(=O)c1cccc(NS(=O)(=O)c2ccc(Cl)s2)c1,13.8
18,COc1ccc(NC(=O)COC(=O)c2cc(Cl)ccc2O)cc1S(=O)(=O)N1CCCCC1,12.7
19,CCCCc1nc(SCC(=O)Nc2ncccn2)n[nH]1,12.3
20,O=C(NCC1CCCN(Cc2cccc(F)c2)C1)c1cccc2ccccc12 (centres unmarked),0.314
21,CCc1nnc(NC(=O)CSc2nnc(Cc3ccccc3)n2-c2ccccc2)s1,6.68
22,COc1cccc(CNC(=O)Cn2ccc3cc(S(=O)(=O)N4CCC(C)CC4)ccc32)c1,-3.85

row,SMILES,"hERG current change (%, negative = inhibition) at 1uM [%]"
1,O=C(O)CNC1c2ccccc2CSc2ccccc21 (centres unmarked),16.7
2,CCOc1cc(CNc2ccc(S(N)(=O)=O)cc2)ccc1OCC(=O)NC(C)(C)C,13.6
3,COc1ccc(CCNC(=O)c2cc(-c3ccc(C)cc3O)n[nH]2)cc1OC,13.8
4,CCOc1ccc2nc(N3C(=O)/C(=C/c4ccccc4)NC3=S)sc2c1,18.1
5,O=C(/C=C/c1ccccc1[N+](=O)[O-])c1ccc(F)cc1,9.45
6,COc1ccccc1N(C(=O)CNC(=O)c1ccco1)C(C(=O)NCC1CCCO1)c1ccccc1 (centres unmarked),14
7,CCNc1nc(NCC)n2c(SCC(=O)Nc3ccc(F)cc3[N+](=O)[O-])nnc2n1,7.91
8,CCc1ccc(CN(C)C(=O)C2CCC(=O)N(CCc3ccc(OC)cc3)C2)nc1 (centres unmarked),-57.9
9,O=C(CCCOc1ccc(Cl)cc1Cl)N1CCN(c2ccccn2)CC1,-4.25
10,C/C(=N\NC(=O)C1(C)CC1(Br)Br)c1ccc(NC(=O)c2ccc(C)o2)cc1 (centres unmarked),12.8
11,CC(=O)N1CCN(S(=O)(=O)c2cccc(C(=O)Nc3nccs3)c2)CC1,9.8
12,Nc1ccc(N=Nc2ccccc2)c2ccccc12,8.38
13,O=C(Cc1ccc([N+](=O)[O-])cc1)N/N=C/c1cccnc1,10.7
14,CC(C)c1ccc(-c2nc(N3CCOCC3)[nH]c(=O)c2C#N)cc1,8
15,COCCN(C(=O)COC(=O)CCSc1ccc(F)cc1)c1c(N)n(Cc2ccccc2)c(=O)[nH]c1=O,9.49
16,Cc1ccc(-c2onc3ccc(Br)cc23)cc1,18.7
17,Cc1cc(C)n(-c2ccc(C(=O)Nc3nnc(C)s3)cc2)n1,5.49
18,CC(CCc1ccccc1)NC(=O)c1cnc(Cl)c(Cl)c1 (centres unmarked),10
19,O=C(N/N=C/c1ccc(-c2ccc([N+](=O)[O-])cc2)o1)c1cccnc1,7.92
20,COc1ccc(NC(=O)c2cccs2)c([N+](=O)[O-])c1,8.13
21,CCC(CC)C(=O)Nc1cccc(SC)c1,15.1
22,CC(C)CC(NC(=O)/C(=C\c1ccco1)NC(=O)c1ccco1)C(=O)O (centres unmarked),12.3

row,SMILES,"hERG current change (%, negative = inhibition) at 1uM [%]"
1,O=C(N/N=C/c1ccco1)c1ccc(NC(=O)C2CCCCC2)cc1,13.6
2,Nc1nc(SCC(=O)O)[nH]c(=O)c1NC(=O)c1ccccc1F,15.4
3,Cc1ccc(C(=O)/C=C/c2ccc(Br)cc2)o1,-4.08
4,COc1cc2c(cc1OC)C(C)N(S(=O)(=O)c1cnc(Cl)c(Cl)c1)CC2 (centres unmarked),10.3
5,Cn1nc(C(=O)NCc2cccc(F)c2)cc1C(=O)NCc1cccc(F)c1,-21.4
6,O=C(NCC1CCCO1)c1ccc(COc2ccc(F)cc2)o1 (centres unmarked),9.1
7,S=C(NCc1ccccc1)N1CCN(C2CCCCC2)CC1,-7.29
8,Cc1ccnc(SCC(=O)Nc2oc(-c3ccccc3)c(-c3ccccc3)c2C#N)n1,8.54
9,Cc1ccc(C2c3c(oc4ccccc4c3=O)C(=O)N2c2nnc(C(C)C)s2)o1 (centres unmarked),6.23
10,COCCN(CCOC)CC(O)COC(c1ccccc1)c1ccccc1 (centres unmarked),-6.95
11,CCn1cc(C(=O)N2CCN(Cc3ccc4c(c3)OCO4)CC2)c(=O)c2ccc(C)nc21,4.86
12,COc1ccc(Cl)cc1NC(=O)Nc1cnccn1,13.7
13,Cc1ccc(S(=O)(=O)N2CCCC(C(=O)NC3=NCCS3)C2)cc1 (centres unmarked),9.2
14,CCOC(=O)C1=C(CSc2nc3c(cc2C#N)CN(C)CC3)OC(N)=C(C#N)C1c1ccccc1 (centres unmarked),4.55
15,CCOCCCN(C(=O)CNC(=O)c1ccco1)C(C(=O)NC1CCCC1)c1ccccc1C (centres unmarked),20
16,CC(C)OCCCNC(=O)C1CCN(S(=O)(=O)N2CCCCC2)CC1,12.2
17,O=C(CCS(=O)(=O)c1ccc(F)cc1)N1CCOCC1,4.64
18,COc1cc(CCC(=O)OCC(=O)N2CCc3ccccc32)cc(OC)c1OC,17.3
19,CCCCn1nnnc1SCC(=O)Nc1ccc2c(c1)OCO2,15.8
20,CCCN(C(=O)c1cccc(S(=O)(=O)N2CCCc3ccccc32)c1)C1CCS(=O)(=O)C1 (centres unmarked),6.98
